Reference: the supplement of paper PMC12632987
In all, about 4,500 sequences were measured (“median log2 fold change of GCK-ALFA target abundance (FLAG IP / Myc IP barcode read proportion)”: median about 0.078, lowest 2% from about -0.6 on). This is one part of the list.

B1: GBRAP_39_5702 (protein)
chain: EEEEEAERVFSYLEAVGAGYMYETGISLEEAVAEAKEIFKKKAEEHPELKELFEKLIEILETGDEETKIAVIGLAVLIKEGTPLEEIKEHMELLIKYFEK
B2: GBRAP_166_4986 (protein)
chain: MNEKIVKETKKKIDELFEKMKEANEEEKTELIIEIAEEIAKAKKKGISEEDLLELVRYALKKVKEAGESVKVAAGIIAEISEFDDEEIEKIDKIAEEVEA
B3: GBRAP_139_3745 (protein)
chain: SRTEAVRARVRELTARLEEDPEAAIAELVELLVSLDEELREAAARELGEELLAWPFDRAEAALDALIERLREEAGDEDGAEILEAERNRTLAQIAVREEA
B4: GBRAP_74_6569 (protein)
chain: SEELIEKIKEIAKNKSLKEFAEFILENIDKLDEETLLVAAKEFAEKIRKEKDTITEEELELAEEAAAALAEKAFQEDSSRETLEAVNRLIAEVVEAEKAL
B5: GBRAP_11_2766 (protein)
chain: KKEKLKEIAKLAEELAKLLEKILKEGVDNEELRKEAREKLEELKKLVEKYGDEAEKKLAEILEEELEKAEKDPENAEEYLKHALTTARVLAGQFLLKAEE
B6: GBRAP_160_4007 (protein)
chain: SEETEKLIKEIRELFEELKEEMEGLSPEERLTLARGTAGEIIQLALESPVVSDETEDKIAEILDEMIAELEANANAPLEVWKKIIEETEKKIEALLKESE
B7: GBRAP_95_7075 (protein)
chain: DEDLEELEILADTAIDLYDAGLKEQAARLMRAFIDEAEELGYKVKDKELAIRALEKFVELALEHFDLEEIEKALAIAKAIGAPQEIIDRLEKIAAEKKAR
B8: GBRAP_177_5018 (protein)
chain: MTLEELKAMLADPNVSLKEFAEALKEAAKNLSAEEVIELLAEGLQKKPLDEEGAKAAAELILEISRVHGISISEIIGYLIEHVEAEKVEKILEALAKLEE

What follows are binders tested against GABARAP, O95166 (assay: median log2 fold change of GCK-ALFA target abundance (FLAG IP / Myc IP barcode read proportion) (log2 ratio); each designed protein is fused to an ALFA-tag nanobody in HEK293 cells to bring the named protein to FLAG-tagged glucokinase (GCK); Myc marks an untargeted standard; higher = target protein stabilised (more abundant)). Conditions: target protein: 3xFLAG-MCP-GCK-ALFA reporter; HEK293 landing pad (RPLP).
Chain of GABARAP, O95166 (O95166 whole entry, the tested form may be a part): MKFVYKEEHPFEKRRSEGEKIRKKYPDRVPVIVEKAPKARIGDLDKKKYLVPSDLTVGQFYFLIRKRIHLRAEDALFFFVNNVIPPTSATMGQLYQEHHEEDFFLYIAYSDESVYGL
Method in brief: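 The readout is target abundance, the per-binder median log2 ratio of FLAG to Myc barcode read proportions. It came from HEK293 landing-pad cells carrying a recombined ALFA-nanobody-fused binder library, induced with 2 μg mL^−1 doxycycline and transfected with a plasmid for a FLAG-tagged target and a Myc-tagged standard. After 48 h, lysates were immunoprecipitated with anti-FLAG and anti-Myc, and circular RNA barcodes were reverse transcribed, amplified and sequenced. Each barcode needed a proportion of at least 10^−7 in both replicates and each binder at least 3 barcodes per replicate, a pseudocount of 10^−6 was added, and the replicates were pooled.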

| Binder | median log2 fold change |
| --- | --- |
| B1 | 0.198 |
| B2 | 0.481 |
| B3 | 0.186 |
| B4 | -0.176 |
| B5 | 0.0217 |
| B6 | 0.00862 |
| B7 | 0.0532 |
| B8 | 0.218 |
